Experimental data as given in publication PMC5501724, “Structural Basis for Specific Interaction of TGFβ Signaling Regulators SARA/Endofin with HD-PTP” (Structure(London, England:1993), 2017).
Where a chain is given by its changes, count along the chain named. No constants are given. Whether binding was seen depends on the method and setting. In cells and extracts the contact can be indirect. Some results given as binding are weak or reduced against the parent protein; the word gives no strength. For some of these results: Sequences can lack the tags named with a protein.

B1: endofin_(1–84)-strep, in vitro translated (domain or fragment, UniProt Q7Z3T8 1-84)
chain: MDSYFKAAVSDLDKLLDDFEQNPDEQDYLQDVQNAYDSNHCSVSSELASSQRTSLLPKDQECVNSCASSETSYGTNESSLNEKT
modifications: 35S-methionine

Columns and labels:
[1] = target: T1, HA-HD-PTP_(Bro1-CC) T145K, expressed in cells (human) (UniProt Q9H3S7); assay: co-IP; HA-tagged HD-PTP constructs expressed in cells; lysates in IP1 buffer (25 mM Tris-HCl pH 7.5, 40 mM NaCl, 0.5% IGEPAL); anti-HA immunoprecipitates blotted for endogenous endofin or SARA
T1 sequence: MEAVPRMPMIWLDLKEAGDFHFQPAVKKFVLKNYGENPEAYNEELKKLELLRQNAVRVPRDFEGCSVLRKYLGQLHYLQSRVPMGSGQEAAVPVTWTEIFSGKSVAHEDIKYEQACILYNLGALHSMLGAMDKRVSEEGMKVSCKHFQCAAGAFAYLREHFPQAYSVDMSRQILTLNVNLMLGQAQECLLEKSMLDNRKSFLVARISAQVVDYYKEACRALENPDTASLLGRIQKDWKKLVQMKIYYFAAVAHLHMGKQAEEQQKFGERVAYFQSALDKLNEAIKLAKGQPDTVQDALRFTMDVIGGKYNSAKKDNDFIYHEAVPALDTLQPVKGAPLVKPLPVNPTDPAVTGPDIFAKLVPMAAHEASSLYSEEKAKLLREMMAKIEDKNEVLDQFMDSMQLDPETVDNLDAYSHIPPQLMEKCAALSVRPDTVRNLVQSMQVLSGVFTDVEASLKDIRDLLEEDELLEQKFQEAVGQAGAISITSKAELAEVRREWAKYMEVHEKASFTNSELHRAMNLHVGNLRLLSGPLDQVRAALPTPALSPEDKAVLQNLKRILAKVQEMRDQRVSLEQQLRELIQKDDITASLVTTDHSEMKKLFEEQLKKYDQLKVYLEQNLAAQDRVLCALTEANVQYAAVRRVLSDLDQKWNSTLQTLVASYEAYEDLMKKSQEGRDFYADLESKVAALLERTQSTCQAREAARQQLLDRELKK

[2] = target: HA-HD-PTP (hemagglutinin-tagged HD-PTP, wild type) (human) (UniProt Q9H3S7); assay: as above
[3] = target: T2, His6HD-PTP_(Bro1-CC) L202D, in vitro co-translated (human) (UniProt Q9H3S7); assay: co-IP; endofin(1–84) and His6HD-PTP Bro1-CC (wild type and mutants) co-translated in vitro, then immunoprecipitated with anti-His (Figure S3)
T2 sequence: T1 sequence with K145T, L202D

[4] = target: T3, His6HD-PTP_(Bro1-CC) R69L, in vitro co-translated (human) (UniProt Q9H3S7); assay: as above
T3 sequence: T1 sequence with R69L, K145T

Molecule | binding [1] | binding [2] | binding [3] | binding [4]
endogenous endofin (from UniProt Q7Z3T8 1-1539) | no binding | binds | – | –
B1 | – | – | no binding | binds
